Data from PubChem BioAssay AID624414 (National Center for Advancing Translational Sciences (NCATS), 2012).
Where “and” joins values, the source holds several entries; their conditions need not be identical. Equal values may be shown once. Among all 410,000 compounds or so, about 480 (0.12%) were called active. Inconclusive means that the source gave no clear call. Such entries were picked first, then a sample of the others. Rule as the data show it: active = activation above about 50%; inconclusive = mostly about 30% to 49%; inactive = weaker than that.

Each compound was assayed against Mucolipin-1 (Homo sapiens) (UniProt Q9GZU1) (assay: qHTS for Agonists of the Human Mucolipin Transient Receptor Potential 1 (TRPML1)). Details: TRPML1-expressing cells, Ca2+ dye fluorescence, FDSS; stronger effect = higher value.
Procedure, shortened: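 Kinetic FDSS Ca2+ read in Tet-induced TRPML1-DL cells (ABD Ca8 dye plus quencher, 45-90 min RT loading): baseline, then compound, then 110 s agonist window; EC80 agonist 54-4 at 4uM final added afterwards for a 110 s antagonist window.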
Also: 0% is about no effect.

Chain of UniProt Q9GZU1 (Q9GZU1 whole entry, looked up): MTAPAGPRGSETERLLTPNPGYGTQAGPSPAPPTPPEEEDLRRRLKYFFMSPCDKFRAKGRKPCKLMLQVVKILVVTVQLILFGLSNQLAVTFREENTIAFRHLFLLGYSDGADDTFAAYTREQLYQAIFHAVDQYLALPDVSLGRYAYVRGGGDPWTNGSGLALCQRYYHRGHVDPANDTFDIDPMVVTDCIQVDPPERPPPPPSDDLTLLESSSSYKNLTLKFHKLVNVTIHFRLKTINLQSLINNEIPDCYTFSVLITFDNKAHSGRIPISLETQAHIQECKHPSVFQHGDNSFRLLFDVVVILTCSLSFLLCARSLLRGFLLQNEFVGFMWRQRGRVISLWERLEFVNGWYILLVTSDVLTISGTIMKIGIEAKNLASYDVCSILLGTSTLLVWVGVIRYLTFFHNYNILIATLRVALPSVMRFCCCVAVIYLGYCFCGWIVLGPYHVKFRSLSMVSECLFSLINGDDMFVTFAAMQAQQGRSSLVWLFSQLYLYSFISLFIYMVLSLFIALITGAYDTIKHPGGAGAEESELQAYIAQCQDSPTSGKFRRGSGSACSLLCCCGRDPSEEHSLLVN

activation, inactive:
CCn1cc(C(=O)Nc2ccc(Cl)cc2Cl)cn1 -0.756%, CCCN(C)CCCOc1cc2nc(N3CCCN(C)CC3)nc(NC3CCN(C)CC3)c2cc1OC 0.385%, Cc1ccc(S(=O)(=O)N(C)c2ccc(OC(=O)COc3ccccc3)cc2)cc1 2.8%, COc1cc2nc(N3CCCN(C)CC3)nc(NC3CCN(C)CC3)c2cc1OC 2.02%, CC(=O)c1ccc(NC(=S)NC(=O)/C=C/c2ccc(F)cc2)cc1 0.373%, Cc1cc2c(cc1NC(=O)c1ccccc1C)n(C)c(=O)c(=O)n2C 1.27%, CNCc1ccccc1Sc1cc(O)ccc1O -0.245%, CCCCC[C@@H]1C=C(C(=O)O)[C@H](c2ccc(F)cc2)N1S(=O)(=O)c1ccc(C)cc1 0.0936%, COc1ccc(SCC(CC(C)C)N2CCN(CCc3ccccc3)CCC2=O)cc1 (configuration not stated) 1.04%, S=C(NN=C1CCCCCC1)Nc1ccc(Cl)cc1 0.376%, CC(C)Oc1ccc(CNC(=O)C2CCCN(S(=O)(=O)c3ccc4c(ccn4C)c3)C2)cc1 (configuration not stated) 1.33%, COc1ccc(N=CC2=C(O)CC(C)(C)CC2=O)cc1 -1.19%, COc1ccc(C2C=C(c3ccccc3)Nc3nc(CCCO)nn32)cc1 (configuration not stated) 5.68%, c1ccc(-c2nc(SCC3CCCCO3)n[nH]2)cc1 (configuration not stated) -0.898%, Cc1ccc2nc(/C(C#N)=C/c3ccc(-c4cccc([N+](=O)[O-])c4)o3)[nH]c2c1 4.95%, COc1ccc(-c2sc3ccccc3c2C#CC2(O)CCCCC2)cc1 -0.914%, COc1cccc(NC(=O)CN2C(=O)NC3(CCCCCC3)C2=O)c1 -0.506%, COC(=O)c1ccc(S(N)(=O)=O)o1 -0.606%, COc1ccc(N=Nc2ccc(CO)cc2)cc1 -0.607%, N#Cc1c(N)sc(=S)c2c1CCCCC2 9.4%, COc1cc(/C=C(/C#N)C(=O)c2c(C)[nH]c3ccccc23)ccc1OCC#N 0.678%, CCOc1ccc(CNC(=O)c2ccc3c(c2)nc2n3CCCCC2)cc1 -1.09%, CS(=O)(=O)Nc1ccc(C(=O)Nc2ccc3c(c2)OCO3)cc1 2.03%, NC(=O)CC(NC(=O)Cc1ccc(Br)cc1)c1ccc(NCCN2CCOCC2)c([N+](=O)[O-])c1 (configuration not stated) 0.121%, COc1cccc(CNC(=O)c2ccc3c(c2)nc2n3CCOC2)c1OC -1.05%

activation, inconclusive:
O=C(OCc1ccccc1)N1CCCCC1c1c(Cl)cccc1Br (configuration not stated) 34.3%, OCC1(Cc2cccc(Cl)c2)CCCN(Cc2sc(N3CCCC3)nc2Cl)C1 (configuration not stated) 41.8%, COc1cc(/C=C(/C#N)c2ccc(C)cc2)ccc1Oc1ccc([N+](=O)[O-])cn1 42.4%, N#C/C(=C\c1ccc(-c2ccc(F)cc2F)o1)c1nc2ccccc2[nH]1 36.5%, COc1cc(/C=N/Nc2ccc(S(N)(=O)=O)cc2[N+](=O)[O-])cc(OC)c1O 39.2%, CS(=O)(=O)NCc1nnc(SCc2c(F)cccc2Cl)o1 44.8%, CC(=O)N1CCc2nc3sc(C(=O)c4ccc(F)cc4)c(N)c3c(C(F)(F)F)c2C1 44.6%, Cc1cc2c(C(C)C)c(O)c(O)c(C=O)c2c(O)c1-c1c(C)cc2c(C(C)C)c(O)c(O)c(C=O)c2c1O 46.2%, CCN(CC)C(=O)Oc1c(Cl)cc(Cl)c2cccnc12 34.7%, Cc1sc2ncnc(SCC(=O)Nc3nc(-c4ccc(F)c(F)c4)cs3)c2c1C 47.4%, CCOC(=O)CN1C(=O)S/C(=C/C=C/c2ccc(N(C)C)cc2)C1=O 35%, C=CCc1cccc2cc(C(=O)NC3CCCCC3)c(=O)oc12 38.3%, CCCOc1ccc2c3c(c(=O)oc2c1)CCCC3 39.2%, COc1ccc(N/C(N)=N/c2nc(C)cc(C)n2)cc1 30.6%, Cc1ccc(/C=C2\CCC3=C2OC(N)=C(C#N)C3c2ccc(C)cc2)cc1 (configuration not stated) 42.7%, CC(C)CC[n+]1ccccc1/C=C/c1ccc(N(C)C)cc1 30.8%, Cc1ccc2nc(-c3ccc(NS(=O)(=O)c4c(C)n(C)c(=O)n(C)c4=O)cc3)sc2c1 32.3%, N#CC(C#N)=C(N)/C(C#N)=C/c1cc(O)c(O)c(O)c1 45.4%, Nc1ccc2nc(-c3ccccc3)cnc2c1 32.7%, CN(C)c1ccc(/C=C/c2ccc3cc(N)ccc3n2)cc1 34.4%, C=CCN1C=CC(=CC=C(C#N)C#N)C=C1 34.4%, CC[C@@H](C(=O)[C@@H](C)[C@@H](O)[C@H](C)CCc1ccc(C)c(O)c1C(=O)O)[C@H]1O[C@](CC)([C@H]2CC[C@](O)(CC)[C@H](C)O2)C[C@@H]1C 45.8%, COc1cc(/C=C2\Oc3cc(O)ccc3C2=O)ccc1O 44.2%, CC(C)(C)C(=O)/C=c1\s/c(=C\c2ccc(-c3ccc([N+](=O)[O-])cc3)o2)c(=O)n1CC(=O)NC(N)=O 47.3%, CCCCn1nnnc1C(c1ccccc1)N1CCN(c2ccc(C(F)(F)F)cn2)CC1 (configuration not stated) 39.1%, COc1cc(/C=c2\s/c(=C(/C#N)C(=O)N3CCCC3)n(-c3ccccc3)c2=O)ccc1O 40.8%, COc1ccc(Nc2sc(C(=O)c3ccccc3)c(N)c2C(=O)Nc2cc(C)ccc2C)c(OC)c1 31.7%, CCCOP(=O)(OCCC)C(Nc1ccc(C(C)C)cc1)c1ccc([N+](=O)[O-])cc1 (configuration not stated) 38.6%, COc1ccc(NCc2nnc(SCC(=O)c3ccc(OC)cc3)n2C)cc1 30.5%, CC1C(=O)N2CCCc3cc(S(=O)(=O)N(C)c4ccccc4)cc1c32 (configuration not stated) 30.7%, CN(c1ccccc1)c1ccc(/C=C/[N+](=O)[O-])cc1 41.7%, CC(=O)Nc1ccc(Sc2ncccc2C(=O)Nc2ccc(F)cc2)cn1 47.4%, Cc1ccc(S(=O)(=O)Nc2cc(C(F)(F)F)ccc2N2CCOCC2)cc1 37%, CC1(c2ccc(OC(F)F)cc2)NC(=O)N(CC(=O)Nc2ccccc2)C1=O (configuration not stated) 31.2%, COc1ccccc1NC(=O)CSc1nnc(-c2ccncc2)o1 30.4%, CCOC(=O)C1=NN(C(=O)c2ccc(OC)cc2)C(O)(c2ccc(Cl)cc2)C1 (configuration not stated) 30.7%, CCCOc1cc(N(CC)CC)ccc1/C=C(/C#N)c1nc2ccc(C)cc2[nH]1 34%, CCCCn1nnnc1C(c1ccccc1)N1CCN(c2ncccc2C(F)(F)F)CC1 (configuration not stated) 41.8%, O=S(=O)(Nc1ccc(-c2ccc(N3CCCC3)nn2)cc1)c1ccc(C(F)(F)F)cc1 47.5%, CCCOc1ccc(CNC(=O)c2oc3ccc4c(c3c2C)C(=O)CC(C)(CC)O4)cc1 (configuration not stated) 40%

activation, active:
COc1cccc(CN(Cc2ccco2)C(c2ccc(F)cc2)c2nnnn2C(C)(C)C)c1 (configuration not stated) 106%, CCCCCCN1C=CC(=C/C=C(\C#N)C(=O)OCC)C=C1 59.5%, CN1CCc2c(sc(NC(=O)CSc3ccccc3)c2-c2nc3ccccc3s2)C1 59.4%, CC(=O)Nc1ccc(/C=N/N2C(=O)NC(C)(c3ccc(OC(F)F)cc3)C2=O)cc1 (configuration not stated) 50%, CN1C(=O)/C(=C\c2ccc(N(C)C)cc2)OC1=S 82.3%, COc1cccc(CN(CC2CCCO2)S(=O)(=O)c2ccc(S(=O)(=O)N(C)C)cc2)c1 (configuration not stated) 86.9%, CN(CCc1ccccc1)C(c1cc2ccccc2o1)c1nnnn1C(C)(C)C (configuration not stated) 69.8%, O=C(N/N=C/c1c(O)ccc2ccccc12)c1cccc(C(F)(F)F)c1 91.5%, CC(C)(C)n1nnnc1C(c1cccs1)N(Cc1ccc(Cl)cc1)CC1CCCO1 (configuration not stated) 66.1%, O=c1oc2cc(O)ccc2cc1-c1nc2c(s1)CCc1ccccc1-2 83.4%, Cc1cc(C)nc(/N=C(\N)Nc2ccc(CC(=O)OC(C)C)cc2)n1 68.4%, Cc1cc(N2CCCCC2)nc(N)n1 55.8%, CC(Oc1ccc(Cl)cc1)C(=O)Nc1ccccc1N1CCOCC1 (configuration not stated) 73.8%, CC(C)(C)C(=O)NC(=S)NNC(=O)c1ccc(Cl)cc1Cl 65.9%, Cc1nc2c(cnn2-c2ccccc2Cl)c(=O)n1-c1ccc(C(C)C)cc1 87.8% and 94%, N#C/C(=C/c1ccc(N2CCCCC2)o1)C(=O)Nc1ccc2ccccc2c1 51.1%, COc1ccc(Cn2nnnc2C(c2ccccn2)N2CCN(c3cc(Cl)ccc3C)CC2)cc1 (configuration not stated) 74.3%, CCSC1=NSC2=NC(=O)/C(=C\c3coc4ccccc4c3=O)C(=N)N12 77.3%, O=[N+]([O-])c1ccc(C2=NN(c3ccccc3)C(c3ccco3)C2)cc1 (configuration not stated) 55%, CCCCN(CCC(=O)O)c1ccc(/C=C/c2ccnc3ccccc23)cc1 98.6%, Cc1ccc(CNC(=O)c2cccc3c2C(=O)c2ccc(N4CCCCC4)cc2S3(=O)=O)cc1 50.4%, Cc1ncoc1C(=O)N1CCCC(C(=O)Nc2cccc(-c3ccc(F)cc3)c2)C1 (configuration not stated) 53.4%
